The supplement of paper PMC3334620
Whole data set: some 33,000 sequences, median “E-score (-0.5 to 0.5)” near -0.035, cut for the highest 2% near 0.34. The list shows a part of the results.

Biological target: T1, Mot3 (UniProt P54785)
T1 sequence: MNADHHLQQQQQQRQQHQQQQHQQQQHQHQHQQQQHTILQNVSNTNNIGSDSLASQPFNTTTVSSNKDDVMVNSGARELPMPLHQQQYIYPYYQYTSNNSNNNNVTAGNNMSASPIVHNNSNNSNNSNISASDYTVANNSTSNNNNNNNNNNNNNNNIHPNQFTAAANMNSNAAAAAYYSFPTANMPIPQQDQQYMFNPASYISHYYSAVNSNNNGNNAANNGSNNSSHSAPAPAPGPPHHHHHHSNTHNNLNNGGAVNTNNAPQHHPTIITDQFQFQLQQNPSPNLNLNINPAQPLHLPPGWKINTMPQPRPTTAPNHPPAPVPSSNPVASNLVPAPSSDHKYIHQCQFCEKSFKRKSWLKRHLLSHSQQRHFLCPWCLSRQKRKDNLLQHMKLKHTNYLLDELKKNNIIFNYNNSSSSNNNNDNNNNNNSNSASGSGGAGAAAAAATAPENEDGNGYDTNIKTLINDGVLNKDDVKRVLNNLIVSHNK
Assay: PBM E-score (8-mer binding enrichment) (E-score (-0.5 to 0.5)); higher = stronger / more preferred TF binding; most listed sequences are background and not binding sites
Conditions: protein concentration: 200 nM; construct: GST-full length
Procedure, shortened: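 Using PURExpress in vitro transcription/translation, GST-tagged yeast transcription factors were made in full-length or DNA-binding-domain form. These were applied at about 100-200 nM to double-stranded universal all-10-mer Agilent arrays, and bound protein was detected with fluorescent anti-GST. Scans were normalised with masliner before the Universal PBM Analysis Suite assigned E-scores to ungapped eight-base words pooled with their reverse complements.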

Question: For AGTGCACT, which “PBM E-score” value is on record?
Answer: -0.158

Question: GGGAGAAA was tested. Which “PBM E-score” value did it give?
Answer: -0.0567

Question: Which “PBM E-score” value does the source give for GTGTATTA here?
Answer: 0.335

Question: Which “PBM E-score” value does the source give for CAGGTTGC here?
Answer: 0.209

Question: With GGCCACCC as the sequence, how does the “PBM E-score” value read?
Answer: -0.204

Question: How did the “PBM E-score” value turn out when CCGGCTAG was run?
Answer: -0.261

Question: With GACCTATA as the sequence, how does the “PBM E-score” value read?
Answer: 0.0644

Question: How did the “PBM E-score” value turn out when AGGCTGCA was run?
Answer: -0.0277

Question: How did the “PBM E-score” value turn out when ACTGAACT was run?
Answer: -0.137

Question: For ATCTGGAA, which “PBM E-score” value is on record?
Answer: -0.152

Question: How did the “PBM E-score” value turn out when CCGTACAC was run?
Answer: 0.101

Question: How did the “PBM E-score” value turn out when CAAGGGGG was run?
Answer: -0.152

Question: AAGTGTGA was tested. Which “PBM E-score” value did it give?
Answer: -0.0731

Question: Which “PBM E-score” value does the source give for GCCACGCA here?
Answer: -0.115

Question: With TCCTTACA as the sequence, how does the “PBM E-score” value read?
Answer: 0.232

Question: How did the “PBM E-score” value turn out when CGTCCTAC was run?
Answer: -0.234

Question: AGACCAGG was tested. Which “PBM E-score” value did it give?
Answer: -0.0873

Question: ATAGTAAT was tested. Which “PBM E-score” value did it give?
Answer: 0.15

Question: AGTTACAA was tested. Which “PBM E-score” value did it give?
Answer: 0.204

Question: With AGCGCAAA as the sequence, how does the “PBM E-score” value read?
Answer: -0.0417

Question: For AACTAGAT, which “PBM E-score” value is on record?
Answer: 0.138

Question: For GACGGCGC, which “PBM E-score” value is on record?
Answer: -0.21

Question: For CCCATACC, which “PBM E-score” value is on record?
Answer: -0.122

Question: For GAACATCC, which “PBM E-score” value is on record?
Answer: 0.123

Question: With ACACTAAG as the sequence, how does the “PBM E-score” value read?
Answer: -0.0518

Question: With TCTATGCA as the sequence, how does the “PBM E-score” value read?
Answer: 0.172

Question: ATGACGTG was tested. Which “PBM E-score” value did it give?
Answer: 0.227

Question: With GACCACGA as the sequence, how does the “PBM E-score” value read?
Answer: -0.207

Question: How did the “PBM E-score” value turn out when ACGAAGCC was run?
Answer: -0.0622

Question: Which “PBM E-score” value does the source give for CTGTACCA here?
Answer: -0.152

Question: Which “PBM E-score” value does the source give for AATGCTGC here?
Answer: -0.0329

Question: CACGCGTA was tested. Which “PBM E-score” value did it give?
Answer: 0.305

Question: GCAGTGAC was tested. Which “PBM E-score” value did it give?
Answer: -0.0936

Question: With GGCATTCA as the sequence, how does the “PBM E-score” value read?
Answer: -0.0157

Question: For GGAAAAAC, which “PBM E-score” value is on record?
Answer: 0.172

Question: GTGCTAGA was tested. Which “PBM E-score” value did it give?
Answer: 7e-05

Question: GCTGTCCA was tested. Which “PBM E-score” value did it give?
Answer: -0.0862

Question: Which “PBM E-score” value does the source give for TCAGTCCA here?
Answer: -0.0843

Question: With CTTTGAAA as the sequence, how does the “PBM E-score” value read?
Answer: 0.0644

Question: How did the “PBM E-score” value turn out when AAGCTAGT was run?
Answer: -0.004

Question: For AACCAATT, which “PBM E-score” value is on record?
Answer: -0.0394

Question: With AACCGCTA as the sequence, how does the “PBM E-score” value read?
Answer: -0.178

Question: Which “PBM E-score” value does the source give for CGTCAAAC here?
Answer: 0.0694

Question: With AAGTCGAA as the sequence, how does the “PBM E-score” value read?
Answer: -0.152

Question: With CGCTGCGC as the sequence, how does the “PBM E-score” value read?
Answer: -0.353

Question: Which “PBM E-score” value does the source give for ATCAATAA here?
Answer: 0.0626

Question: With ATCTCGCC as the sequence, how does the “PBM E-score” value read?
Answer: -0.275

Question: How did the “PBM E-score” value turn out when TCCGGCCA was run?
Answer: -0.225

Question: For ATACGTTG, which “PBM E-score” value is on record?
Answer: 0.0416

Question: With CGCATCAC as the sequence, how does the “PBM E-score” value read?
Answer: -0.15

Question: How did the “PBM E-score” value turn out when AAACCTTT was run?
Answer: -0.0903

Question: For CATGTCGA, which “PBM E-score” value is on record?
Answer: 0.351

Question: Which “PBM E-score” value does the source give for TAATTTGA here?
Answer: -0.0388

Question: With AAAGATCT as the sequence, how does the “PBM E-score” value read?
Answer: 0.0158

Question: With TACTTATA as the sequence, how does the “PBM E-score” value read?
Answer: 0.0911

Question: Which “PBM E-score” value does the source give for CCAGTTCC here?
Answer: -0.118

Question: CGGCGGCA was tested. Which “PBM E-score” value did it give?
Answer: -0.297

Question: How did the “PBM E-score” value turn out when CGGCAGTC was run?
Answer: -0.209

Question: TATAGCCA was tested. Which “PBM E-score” value did it give?
Answer: -0.0743

Question: For AGAGACGG, which “PBM E-score” value is on record?
Answer: -0.156

Question: Which “PBM E-score” value does the source give for AGGTGTGA here?
Answer: -0.128

Question: How did the “PBM E-score” value turn out when CGACGCAA was run?
Answer: -0.169

Question: TCGCCGCA was tested. Which “PBM E-score” value did it give?
Answer: -0.202

Question: Which “PBM E-score” value does the source give for AAGAGGGA here?
Answer: -0.128

Question: ATAGCAAC was tested. Which “PBM E-score” value did it give?
Answer: 0.0102

Question: For ACTAGTGG, which “PBM E-score” value is on record?
Answer: -0.214

Question: AGTCTGTC was tested. Which “PBM E-score” value did it give?
Answer: -0.119

Question: How did the “PBM E-score” value turn out when AGGACCTA was run?
Answer: -0.193

Question: Which “PBM E-score” value does the source give for TAGGCGAA here?
Answer: 0.0399

Question: Which “PBM E-score” value does the source give for AATGACAA here?
Answer: 0.12

Question: GCGGTCAC was tested. Which “PBM E-score” value did it give?
Answer: -0.246

Question: For AGGTCACA, which “PBM E-score” value is on record?
Answer: 0.0282

Question: For AACAACGA, which “PBM E-score” value is on record?
Answer: 0.0086

Question: CAGGGCGG was tested. Which “PBM E-score” value did it give?
Answer: -0.241

Question: CCAGTTTA was tested. Which “PBM E-score” value did it give?
Answer: 0.193

Question: TAATACCA was tested. Which “PBM E-score” value did it give?
Answer: 0.173

Question: AGCGTCGG was tested. Which “PBM E-score” value did it give?
Answer: -0.206

Question: How did the “PBM E-score” value turn out when ACAGAGAG was run?
Answer: -0.224

Question: For AACTTCTA, which “PBM E-score” value is on record?
Answer: 0.0105

Question: Which “PBM E-score” value does the source give for CCATGTTA here?
Answer: 0.339

Question: With AGCGATAG as the sequence, how does the “PBM E-score” value read?
Answer: -0.314

Question: CCTCGTAA was tested. Which “PBM E-score” value did it give?
Answer: 0.29

Question: For ACGAGACC, which “PBM E-score” value is on record?
Answer: -8e-05

Question: With CGCAGGCG as the sequence, how does the “PBM E-score” value read?
Answer: 0.17

Question: For GGAGGTAC, which “PBM E-score” value is on record?
Answer: 0.0528

Question: How did the “PBM E-score” value turn out when ATGCCACA was run?
Answer: -0.156
